Measurements published in the supplement of paper PMC11876631.
Where a chain is given by its changes, count along the chain named. In names and notes the source's numbering stands. ± gives the standard deviation of the averaged measurements. Laboratory Escherichia coli strains with one amino-acid change in an essential protein, pooled on minimal glucose agar with carbenicillin or gentamicin at twice the control MIC (plus kanamycin and chloramphenicol for the plasmids), 48 h. Fold change of barcode share against drug-free plates; higher = less susceptible. Active = above 20 in both replicates (the paper's putatively resistant). '<' = one read or none on drug, '>' = one read or none on a drug-free plate. Shares are relative, so most strains fall below 1 when a few take over. Listed are strains with at least 15 reads on both drug-free plates, and hits; most hits rest on fewer reference reads. Replicate rank correlation about 0.5. Edits are read from barcodes.

B1: lolE L193W (protein)
chain: MAMPLSLLIGLRFSRGRRRGGMVSLISVISTIGIALGVAVLIVGLSAMNGFERELNNRILAVVPHGEIEAVDQPWTNWQEALDHVQKVPGIAAAAPYINFTGLVESGANLRAIQVKGVNPQQEQRLSALPSFVQGDAWRNFKAGEQQIIIGKGVADALKVKQGDWVSIMIPNSNPEHKLMQPKRVRLHVAGIWQLSGQLDHSFAMIPLADAQQYLDMGSSVSGIALKMTDVFNANKLVRDAGEVTNSYVYIKSWIGTYGYMYRDIQMIRAIMYLAMVLVIGVACFNIVSTLVMAVKDKSGDIAVLRTLGAKDGLIRAIFVWYGLLAGLFGSLCGVIIGVVVSLQLTPIIEWIEKLIGHQFLSSDIYFIDFLPSELHWLDVFYVLVTALLLSLLASWYPARRASNIDPARVLSGQ
B2: lolE L193Q (protein)
chain: B1 chain with W193Q
B3: lolE L193D (protein)
chain: B1 chain with W193D
B4: aroC V339A (protein)
chain: MAGNTIGQLFRVTTFGESHGLALGCIVDGVPPGIPLTEADLQHDLDRRRPGTSRYTTQRREPDQVKILSGVFEGVTTGTSIGLLIENTDQRSQDYSAIKDVFRPGHADYTYEQKYGLRDYRGGGRSSARETAMRVAAGAIAKKYLAEKFGIEIRGCLTQMGDIPLDIKDWSQVEQNPFFCPDPDKIDALDELMRALKKEGDSIGAKVTVVASGVPAGLGEPVFDRLDADIAHALMSINAVKGVEIGDGFDVVALRGSQNRDEITKDGFQSNHAGGILGGISSGQQIIAHMALKPTSSITVPGRTINRFGEEVEMITKGRHDPCVGIRAVPIAEAMLAIALMDHLLRQRAQNADVKTDIPRW
B5: lolE L193P (protein)
chain: B1 chain with W193P
B6: lolE V292A (protein)
chain: B1 chain with W193L, V292A
B7: lolE V292W (protein)
chain: B1 chain with W193L, V292W
B8: lolE V292Q (protein)
chain: B1 chain with W193L, V292Q
B9: lolE M293A (protein)
chain: B1 chain with W193L, M293A
B10: lolE M293W (protein)
chain: B1 chain with W193L, M293W
B11: lolE M293Q (protein)
chain: B1 chain with W193L, M293Q
B12: lolE M293P (protein)
chain: B1 chain with W193L, M293P

These proteins were tested against Escherichia coli (laboratory strain) (assay: barcode share on antibiotic plates over drug-free plates; higher = less susceptible). Details: antibiotic: carbenicillin; 2× MIC (3.1 µg/mL).
Experimental: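 A pool of E. coli strains, each edited to carry one amino-acid change in an essential protein, was grown for 48 h on minimal glucose agar with or without antibiotic; strain barcodes were sequenced; mean of two replicates.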
For B1, the “fold change of barcode share” value was 0.301 ± 0.12. With B2 the “fold change of barcode share” value was 0.164 ± 0.098. With B3 the “fold change of barcode share” value was 0.281 ± 0.042. In the case of B4, the “fold change of barcode share” value is reported as 0.202 ± 0.053. In the case of B5, the “fold change of barcode share” value is reported as 0.208 ± 0.039. In the case of B6, the “fold change of barcode share” value is reported as 0.21 ± 0.12. With B7 the “fold change of barcode share” value was 0.231 ± 0.088. With B8 the “fold change of barcode share” value was 0.219 ± 0.08. For B9, the “fold change of barcode share” value was 0.194 ± 0.021. In the case of B10, the “fold change of barcode share” value is reported as 0.608 ± 0.055. With B11 the “fold change of barcode share” value was 0.297 ± 0.033. In the case of B12, the “fold change of barcode share” value is reported as 0.141 ± 0.05.

Same assay, conditions: antibiotic: gentamicin; 2× MIC (MIC 0.45 µg/mL)
In the case of B1, the “fold change of barcode share” value is reported as under 0.0061. For B2, the “fold change of barcode share” value was under 0.016. B3 was tested, and the “fold change of barcode share” value was under 0.0114. For B4, the “fold change of barcode share” value was 0.984 ± 1.4. B5 was tested, and the “fold change of barcode share” value was under 0.0125. With B6 the “fold change of barcode share” value was under 0.0105. With B7 the “fold change of barcode share” value was under 0.0102. B8 was tested, and the “fold change of barcode share” value was under 0.0124. B9 was tested, and the “fold change of barcode share” value was 0.0111 ± 0.0071. B10 was tested, and the “fold change of barcode share” value was under 0.00841. With B11 the “fold change of barcode share” value was 0.00664 ± 0.00063. B12 was tested, and the “fold change of barcode share” value was 0.00862 ± 0.0073.
